# From PubChem BioAssay AID743279 (National Center for Advancing Translational Sciences (NCATS), 2014)
# Hit rate of the full screen: of about 360,000 compounds, about 17,000 (4.7%) were called active. The shares of active, inactive and inconclusive entries below differ from those in the screen. No stated cut-off is given here; in the data, active means activity change below about -50%; inconclusive means mostly about -30% to -49%; inactive means weaker than that.
# Assay: qHTS for Inhibitors of Inflammasome Signaling: IL-1-beta AlphaLISA Primary Screen
# Conditions: THP-1 LPS/ATP IL-1B secretion, 16 h; at 57.5 µM, stronger effect = lower value
# Outline: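 THP-1 cells pretreated 1 hr with compounds (up to 57.5 uM final), then stimulated with LPS (250 ng/mL final) plus ATP (1.25 mM final); secreted IL-1B measured by AlphaLISA after 16 hr, decreased signal indicating inhibition.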
# On the % scale 0 is the no-effect control and ±100 the full control effect.
row,Compound,activity change
1,COc1ccc(NC(=O)n2ncc3c(C)cccc32)cc1OC,inconclusive: -34.2%
2,CC1=CC(c2ccccc2)=NS(=O)(=O)N1,active: -104%
3,CC(C)(C)C(=O)Nc1ccc2c(c1)OCCOCCOc1cc(NC(=O)C(C)(C)C)ccc1OCCOCCO2,inconclusive: -33.8%
4,COc1cccc(C2c3[nH]c4ccccc4c3C[C@H]3C(=O)N(CCCCCO)CC(=O)N23)c1 (stereo not given in full),inconclusive: -36.8%
5,CCn1c(SCc2ccc(Cl)cc2)nc2nc3c(cc2c1=O)CCCC3,inconclusive: -40.1%
6,O=S(=O)(Cc1cc(NCc2ccccc2)nc(-c2ccccn2)n1)c1ccccc1,inactive: 39.5%
7,C[C@H](CO)N1C[C@H](C)[C@@H](CN(C)S(=O)(=O)c2ccc(F)cc2)Oc2ccc(NC(=O)Nc3ccc(C(F)(F)F)cc3)cc2C1=O,inconclusive: -44.8%
8,CCn1c(=O)cc(OCC(=O)N2CCCCCC2)c2ccccc21,inactive: -2.24%
9,COc1ccc(NC(=O)NNC(=O)COc2ccc3cc(Br)ccc3c2)cc1OC,inconclusive: -33.9%
10,Oc1ccc(Br)cc1-c1nc2cnccn2c1NC1CCCCC1,active: -70.3%
11,CC(Sc1ccccc1)C(=O)N1CCN(S(=O)(=O)c2ccc(Cl)cc2)CC1 (stereo not given),inactive: -18.1%
12,Cc1cc(C)c2nc(N3CCCN(C(=O)c4ccco4)CC3)c(C#N)cc2c1,inconclusive: -34.7%
13,OCC1(CCc2ccccc2)CCCN(C/C=C/c2ccccc2)C1 (stereo not given),inconclusive: -31.2%
14,O=C(Nc1ccccn1)c1ccc(CN(c2ccccc2)S(=O)(=O)c2ccccc2)cc1,inactive: -19.1%
15,COc1ccc(C(c2nnnn2CS(=O)(=O)c2ccc(C)cc2)N2CCN(c3ncccn3)CC2)cc1 (stereo not given),inconclusive: -34.1%
16,CCCC(=NC(C)CC)C1=C(O)CC(c2ccccc2)CC1=O (stereo not given),active: -66.8%
17,CN1CCN(c2nc3cc(C(F)(F)F)ccc3n3cccc23)CC1,inconclusive: -48%
18,Cc1cc(=O)[nH]c2c(C)cc(S(=O)(=O)N3CCCCC3)cc12,inconclusive: -39.9%
19,CCCc1cc(C(=O)Nc2ccc(C(=O)c3ccc(C)cc3)cc2)n(C)n1,active: -62.5%
20,COc1cc(CN2CCC(C(=O)NCCC(C)C)CC2)ccc1OCc1ccccc1,inconclusive: -42.2%
21,COc1ccccc1CNS(=O)(=O)c1cc(C(=O)NCC2CCCO2)c(Cl)cc1Cl (stereo not given),inactive: -11.8%
22,COC(=O)[C@]1(CC(C)C)N[C@H](c2ccc(SC3CCCCC3)cc2)[C@@H]2C(=O)N(C)C(=O)[C@@H]21,inconclusive: -46%

row,Compound,activity change
1,Cc1ccc(N(Cc2cc3ccc(C)cc3[nH]c2=O)C(=O)c2ccco2)c(C)c1,inconclusive: -36.4%
2,CC(=O)c1sc(NC(=O)c2ccc(C(C)(C)C)cc2)nc1C,inconclusive: -36.7%
3,CC(C)c1ccccc1NC(=S)NN(Cc1ccccc1)c1ccccc1,inconclusive: -40.5%
4,N#Cc1cccc(-n2nnnc2-c2ccccn2)c1,inactive: -11.1%
5,CC1Nc2ncnc(N3CCN(c4ccccc4)CC3)c2N(Cc2ccc(Br)cc2)C1=O (stereo not given),inconclusive: -36.7%
6,Cc1ccc(C(=O)NNC(=O)c2cc(OCC(F)(F)F)ccc2OCC(F)(F)F)cc1,inconclusive: -31.1%
7,COc1ccccc1C1=CC(=O)C[C@H](c2ccc(F)cc2)C1,inconclusive: -35.4%
8,CN(C1=C(NC(=O)c2ccccc2)C(=O)c2ccccc2C1=O)C1CCS(=O)(=O)C1 (stereo not given),inconclusive: -33.9%
9,C[C@@H]1CN([C@H](C)CO)C(=O)c2cccc(NC(=O)Nc3ccc(C(F)(F)F)cc3)c2O[C@H]1CN(C)S(=O)(=O)c1cccs1,active: -54.6%
10,O=C(CSC1=NCCN1)Nc1ccccc1[N+](=O)[O-],active: -119%
11,CC1CCCN(c2ccc(C(=O)Nc3cccnc3)cc2[N+](=O)[O-])C1 (stereo not given),inconclusive: -43.6%
12,CSc1ncc(C(=O)Nc2cc(C)ccc2C)c(C)n1,inactive: 33.8%
13,CC(C)Cn1c(O)c(N=NC(=O)c2cccc(S(=O)(=O)N3CCCCC3)c2)c2ccccc21,inconclusive: -42.8%
14,O=C(N/N=C/c1cccc([N+](=O)[O-])c1)c1cccc(Br)c1,inactive: 2.08%
15,C=C1CCC2[C@](C)(CO)[C@H](O)CC[C@@]2(C)[C@@H]1C/C=C1\C(=O)OC[C@H]1O (stereo not given in full),active: -87.7%
16,COc1ccccc1OCCCN1CCC(C(O)(c2ccccc2)c2ccccc2)CC1,active: -54.2%
17,CCCCNc1ccc(C(=O)OCCOCCOCCOCCOCCOCCOCCOCCOCCOC)cc1,inactive: -24.6%
18,CC(O)CN=c1cc(-c2ccccc2)oc2ccc(Cl)cc12 (stereo not given),active: -72.3%
19,NCc1csc(Nc2ncccn2)n1,inactive: 6.96%
20,COc1ccc(C(CCNCc2ccc(N(C)C)cc2)c2ccccc2OC)cc1 (stereo not given),active: -101%
21,COc1ccc(NC(=O)c2nn(C)c3c2CS(=O)(=O)c2ccccc2-3)cc1,inconclusive: -30.8%
22,CCOc1ccc2c(ccc(/C=C/c3cc(C)c4cccnc4c3O)[n+]2C)c1,inconclusive: -39.4%

row,Compound,activity change
1,Cc1ccc2nc(SCC(=O)c3c(C)[nH]c4ccccc34)[nH]c2c1,inconclusive: -35.4%
2,CCc1cc(CNC(=O)c2cccc(OC3CCN(S(C)(=O)=O)CC3)c2)on1,inactive: -1.34%
3,CN1CC2(C)CN(C(c3ccccc3)c3ccccc3)CC(C)(C1)C2O (stereo not given),inconclusive: -34.2%
4,CCC(=O)N1CCCC(C)(C(=O)Nc2ccc3oc(CC)nc3c2)C1 (stereo not given),inactive: 42.5%
5,CC(=O)Nc1ccc(N=c2cc([N+](=O)[O-])cc(Cl)n2O)cc1,active: -53.2%
6,O=C(Nc1ccncc1)c1c(F)cccc1F,active: -66.7%
7,N=c1ccn(Cc2cccc(Cl)c2)cc1,inconclusive: -37.3%
8,COC(=O)[C@]12CCCCC=C1N(CCc1ccc(OC)c(OC)c1)C(=O)[C@H](CC(=O)NCCCCc1ccccc1)C2,inconclusive: -46.4%
9,O=C(NCCCCO)c1ccc2c3c(cccc13)CC2,inactive: 32%
10,C[C@]12c3[nH]c4ccc(Cl)cc4c3CCN1C(=O)[C@@H](CC(=O)NCC13CC4CC(CC(C4)C1)C3)C[C@@H]2C(=O)N1CCCCC1,active: -60.2%
11,O=C(C1CCN(S(=O)(=O)c2ccc(Cl)cc2)CC1)N1CCCC1,inactive: 1.3%
12,COc1cccc(C(=O)Nc2cccc(C(=O)NC3=NN(c4c(Cl)cc(Cl)cc4Cl)C(=O)C3)c2)c1,inactive: 5.69%
13,CCOC(=O)C1=NN(c2ccc([N+](=O)[O-])cc2)CC1C(=O)OC (stereo not given),inconclusive: -41.3%
14,CCOC(=O)Cc1cc(=O)[nH]n(-c2ccccc2)c1=O,inactive: -6.99%
15,COc1ccc(CCNCc2ccc(OCc3ccccc3)cc2)cc1,active: -98.8%
16,COc1ccc(/C=C2\SC(=O)NC2=S)cc1OC,active: -73.7%
17,Cn1nnc(NC(=S)NC(=O)/C=C/c2ccco2)n1,inactive: 16.9%
18,Cc1cccc(C)c1OCC(=O)N1CCc2ccccc2C1,active: -81.9%
19,CCC(C)Sc1nc2c(c(=O)[nH]c(=O)n2C)n1Cc1ccc(Cl)cc1 (stereo not given),inconclusive: -45.6%
20,Cc1csc(N2CCCC2c2nc3cc(Cl)c(N4CCCCC4)cc3n2CCCO)n1 (stereo not given),inactive: -15.7%
21,O=C(COc1nsnc1N1CCOCC1)N/N=C/c1ccccc1O,inactive: 48.2%
22,Cc1ccc(-n2c(C)c([N+](=O)[O-])c3ccc(O)c(CN(C)C)c32)cc1,inconclusive: -32.6%

row,Compound,activity change
1,CC(C)c1ccc(CNc2ccc([N+](=O)[O-])cn2)cc1,inconclusive: -39%
2,CCC(C)NC(=O)c1cc2cc3ccc(OC)cc3nc2s1 (stereo not given),inconclusive: -33.9%
3,CCOc1ccccc1NC(=O)c1ccc(-n2cncn2)nc1,inactive: 6.32%
4,CN(C)S(=O)(=O)c1cccc(C(=O)Nc2cc(S(=O)(=O)N3CCOCC3)ccc2N2CCCC2)c1,inconclusive: -46.3%
5,O=C(NCCn1cc(SCc2ccccc2)c2ccccc21)c1c(F)cccc1F,inconclusive: -46.2%
6,CCCCN(C(=O)NC(=O)C1=C(N2CCOCC2)/C(=C/c2ccccc2)CC1)S(C)(=O)=O,inconclusive: -39.1%
7,CN(C)C(=O)COC(=O)/C=C/c1ccccc1[N+](=O)[O-],inconclusive: -33.5%
8,Oc1ccccc1C1=NC(c2ccccc2)NC(c2ccccc2)C1 (stereo not given),inconclusive: -43.6%
9,O=C(CSc1nc2[nH]ncc2c(=O)n1-c1ccccc1)c1ccc2c(c1)OCCO2,active: -53.9%
10,CC(C)(CO)NCc1ccccc1OCC(=O)Nc1ccccc1,inactive: -11.4%
11,Cc1c(CN(C)C)c2c(n1Cc1ccccc1)C(=O)c1ccc(Br)cc1-2,active: -68.2%
12,CCOC(=O)c1cnc2ccc(OCC)cc2c1NCc1cccnc1,inconclusive: -44.3%
13,COc1ccc(-c2nn(-c3ccccc3)cc2/C=N/NS(=O)(=O)c2ccccc2)cc1,inconclusive: -39.4%
14,O=C(Nc1nc2ccccc2[nH]1)c1cccc(F)c1,inactive: 24.4%
15,CN(C)c1ccc(C(=O)N=c2sccn2C)cc1[N+](=O)[O-],inconclusive: -41.3%
16,Cc1cc(Cl)c(OCCOCCN2CCNCC2)c(Cl)c1,inactive: -22.7%
17,FC(F)(F)c1cccc(N2CCN(c3nnnn3-c3ccccc3)CC2)c1,inconclusive: -49%
18,CCS(=O)(=O)c1nc(S(=O)(=O)c2ccc(Cl)cc2)c(N2CCN(C)CC2)s1,inconclusive: -48.2%
19,O=C(COC(=O)c1c2c(nc3ccccc13)/C(=C\c1cccs1)CCC2)Nc1ccccc1,active: -54.8%
